Reference: the supplement of paper PMC9174493
The other results are listed elsewhere or left out. Single values of this set are uncertain. Values with irradiation are relative to irradiated vehicle.

What was measured:
A549-Dual [1] = test: NF-kB reporter (SEAP) activity, viability-corrected, relative to vehicle (fold change vs vehicle); higher = more activation of STING-IRF / NF-kB immune response reporter
A549-Dual [2] = test: ISRE reporter (Lucia luciferase) activity, viability-corrected, relative to vehicle (fold change vs vehicle); higher = more activation of STING-IRF / NF-kB immune response reporter
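Wherever NF-kB reporter (SEAP) activity, viability-corrected, relative to vehicle is given: viability correction based on the alamar blue assay, with concentrations leaving 10% survival or less dropped.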

SMILES	NF-kB reporter (A549-Dual [1]; 0.1 µM, irradiation: 8 Gy/4 fr)	NF-kB reporter (A549-Dual [1]; 0.1 µM, irradiation: none)	NF-kB reporter (A549-Dual [1]; 0.3 µM, irradiation: 8 Gy/4 fr)	NF-kB reporter (A549-Dual [1]; 0.3 µM, irradiation: none)	NF-kB reporter (A549-Dual [1]; 1 µM, irradiation: 8 Gy/4 fr)	NF-kB reporter (A549-Dual [1]; 1 µM, irradiation: none)	NF-kB reporter (A549-Dual [1]; 3 µM, irradiation: 8 Gy/4 fr)	NF-kB reporter (A549-Dual [1]; 3 µM, irradiation: none)	NF-kB reporter (A549-Dual [1]; 10 µM, irradiation: 8 Gy/4 fr)	NF-kB reporter (A549-Dual [1]; 10 µM, irradiation: none)	ISRE reporter (A549-Dual [2]; 0.1 µM, irradiation: 8 Gy/4 fr)	ISRE reporter (A549-Dual [2]; 0.1 µM, irradiation: none)	ISRE reporter (A549-Dual [2]; 0.3 µM, irradiation: 8 Gy/4 fr)	ISRE reporter (A549-Dual [2]; 0.3 µM, irradiation: none)	ISRE reporter (A549-Dual [2]; 1 µM, irradiation: 8 Gy/4 fr)	ISRE reporter (A549-Dual [2]; 1 µM, irradiation: none)	ISRE reporter (A549-Dual [2]; 3 µM, irradiation: 8 Gy/4 fr)	ISRE reporter (A549-Dual [2]; 3 µM, irradiation: none)	ISRE reporter (A549-Dual [2]; 10 µM, irradiation: 8 Gy/4 fr)	ISRE reporter (A549-Dual [2]; 10 µM, irradiation: none)
Cl.Nc1ccn(C2OC(CO)C(O)C2O)c(=O)n1 (stereo not given) [Cytarabine hydrochloride]	0.93	1.1	0.75	1.11	0.793	1.26	0.993	1.4	0.839	1.45	1.04	1.38	0.649	3.15	0.525	3.08	0.543	2.05	0.501	2.64
COc1cc(CNC(=O)CCCC/C=C\C(C)C)ccc1O [Zucapsaicin]	1.17	1.67	1.34	1.49	1.37	1.14	1.85	1.23	1	0.805	1.12	1.47	1.09	1.21	1.17	0.902	1.01	0.96	1.07	0.94
Cl.Cl.O=C(O)COCCN1CCN(C(c2ccccc2)c2ccc(Cl)cc2)CC1 (stereo not given) [Cetirizine DiHCl]	1.05	1.29	1.23	1.38	1.66	1.38	1.38	1.2	1.23	0.905	1.07	1.1	1.15	1.16	1.22	1.19	1.01	1.16	0.911	0.788
CN(C)C/C=C/C(=O)Nc1cc2c(Nc3ccc(F)c(Cl)c3)ncnc2cc1OC1CCOC1 (stereo not given) [Afatinib (BIBW2992)]	0.868	1.02	0.891	1.13	0.835	1.05	0.782	0.777	0.764	0.793	0.921	0.746	1.03	0.73	0.846	0.717	0.805	0.672	0.743	0.916
NCCNc1ccc(NCCN)c2c1C(=O)c1ccncc1C2=O.O=C(O)/C=C\C(=O)O.O=C(O)/C=C\C(=O)O [Pixantrone Maleate]	0.885	1.49	0.878	1.59	0.91	1.96	1.12	1.68	0.945	1.88	0.57	4.6	0.555	3.83	0.579	3.35	0.684	3.05	0.613	3.65
CCCS(=O)(=O)Nc1ccc(F)c(C(=O)c2c[nH]c3ncc(-c4ccc(Cl)cc4)cc23)c1F [Vemurafenib (PLX4032, RG7204)]	0.797	1	0.86	0.924	0.711	0.841	0.534	0.671	0.58	0.675	0.861	0.949	0.969	1.03	0.726	1.02	0.492	0.892	0.643	1.21
O=C(O)c1cc(N=Nc2ccc(S(=O)(=O)Nc3ccccn3)cc2)ccc1O [Sulfasalazine]	0.831	0.998	0.814	1.13	1.21	0.904	1.08	0.883	0.818	0.807	0.859	0.771	0.685	0.726	0.686	0.793	0.718	0.95	0.712	0.619
CN1C(=O)/C(=C2/C(=O)Nc3ccccc32)c2ccccc21 [Meisoindigo]	1.01	1.24	0.795	1.03	0.875	1.01	0.773	0.985	0.792	1.08	0.842	0.805	0.457	0.456	0.396	0.45	0.306	0.275	0.333	0.4
CCC(=O)OC1(C(=O)SCF)C(C)CC2C3CC(F)C4=CC(=O)C=CC4(C)C3(F)C(O)CC21C (stereo not given) [Fluticasone propionate]	0.538	0.888	0.858	1.07	1.07	0.739	1.14	0.771	0.473	0.694	0.0498	0.234	0.0434	0.234	0.0472	0.161	0.0453	0.227	0.0452	0.236
O=C(O)c1cc(-c2ccc(F)cc2F)ccc1O [Diflunisal]	0.871	0.766	1.11	0.767	0.897	0.903	0.793	0.8	0.828	0.708	0.908	0.764	0.865	0.694	0.726	0.737	0.881	0.839	0.763	0.751
Cc1ccc(C(C)C)cc2c(C)ccc1-2 [Guaiazulene]	1.23	1.79	1.11	1.44	1.3	1.13	1.71	1.17	1.05	0.603	1.2	1.62	0.982	1.19	1.16	1.04	0.905	1.05	1.23	0.85
O=C1CCC(N2C(=O)c3ccccc3C2=O)C(=O)N1 (stereo not given) [Thalidomide]	1.12	0.955	1.1	1.06	1.13	0.959	1.3	0.998	0.811	0.939	1.09	0.934	0.912	0.886	0.982	0.84	0.824	0.929	0.84	0.904
Cc1ccc(Nc2c(F)cccc2Cl)c(CC(=O)O)c1 [Lumiracoxib]	0.898	1.24	1	1.48	1.28	0.944	1.29	1.02	0.859	0.865	1.05	0.949	0.823	0.896	0.891	0.951	0.867	0.97	0.901	0.9
CC[N+](CC)(CC)CCOc1cccc(OCC[N+](CC)(CC)CC)c1OCC[N+](CC)(CC)CC.[I-].[I-].[I-] [Gallamine Triethiodide]	0.698	0.805	0.819	0.819	0.837	0.787	0.754	0.845	0.724	0.837	0.805	0.822	0.73	0.661	0.577	0.773	0.647	0.926	0.643	0.802
Cc1cn(-c2cc(NC(=O)c3ccc(C)c(Nc4nccc(-c5cnccn5)n4)c3)cc(C(F)(F)F)c2)cn1 [Radotinib]	0.972	0.839	0.692	0.972	0.806	1.03	0.743	1.01	0.743	0.815	0.978	1.12	0.829	1.04	0.921	0.915	0.743	0.923	0.671	0.829
COc1ccc2cc(CCC(C)=O)ccc2c1 [Nabumetone]	1.05	1.3	1.23	1.05	1.64	1.07	1.16	1.05	1.14	1.13	1.18	0.999	1.25	1.08	1.14	1.12	1.09	0.987	1.03	1.04
CC(C)C(=O)Nc1ccc([N+](=O)[O-])c(C(F)(F)F)c1 [Flutamide]	0.892	0.988	0.98	1.01	0.791	0.912	0.896	0.828	0.858	0.949	1.03	0.904	1.04	1	0.785	0.967	0.771	0.67	0.8	0.846
CC(C)CC(NC(=O)CNC(=O)c1cc(Cl)ccc1Cl)B(O)O (stereo not given) [Ixazomib (MLN2238)]	1.23	1.5	1.36	2.08	1.31	2.82	0.95	2	0.744	1.55	0.163	1.08	0.0707	0.412	0.0801	0.487	0.0735	0.478	0.0428	0.292
CCC1(O)CC2CN(CCc3c([nH]c4ccccc34)C(C(=O)OC)(c3cc4c(cc3OC)N(C)C3C(O)(C(=O)OC)C(OC(C)=O)C5(CC)C=CCN6CCC43C65)C2)C1.O=S(=O)(O)O (stereo not given) [Vinblastine sulfate]	1.06	2.27	0.813	1.97	0.765	1.74	0.761	1.64	0.803	1.56	0.218	1.31	0.0861	0.75	0.0826	0.604	0.0882	0.527	0.0949	0.648
CC(=O)[N-]S(=O)(=O)c1ccc(N)cc1.[Na+] [Sulfacetamide Sodium]	1.01	1.28	1.03	1.14	1.05	0.949	1.47	0.988	0.742	0.438	1.03	1.31	1.01	1.23	1.03	0.979	0.897	0.953	0.791	0.696
CO/N=C(\C(=O)NC1C(=O)N2C(C(=O)OCOC(=O)C(C)(C)C)=C(C)CSC12)c1csc(N)n1.Cl (stereo not given) [Cefetamet pivoxil hydrochloride]	0.977	0.897	1.11	0.806	1.13	0.826	0.925	0.855	0.929	1.07	0.939	0.833	0.923	0.631	0.794	0.634	0.834	0.858	0.885	0.678
CC(=O)OC(C)C(C)C(=O)OCC12C3CC4(C)C(=CCC5C6(C)CCC(OC7OC(C(=O)[O][Na])C(OC8OC(CO)C(O)C(O)C8O)C(O)C7OC7OCC(O)C(O)C7O)C(C)(CO)C6CCC54C)C1CC(C)(C)C(O3)C2O (stereo not given) [Sodium Aescinate]	1.47	1.35	1.57	1.2	1.35	1.26	1.49	1.26	1.59	1.26	1.1	0.939	1.22	0.85	1.04	0.913	1.12	0.972	1.09	0.727
